{
  "source": "patent US20170073391A1",
  "about": "(R PHARM OVERSEAS, published 2017)",
  "binders": {"B1": {"name": "hOPG-hIgG1-Fc polypeptide of SEQ ID NO. 1 (Fc fusion)", "chain": "ETFPPKYLHYDEETSHQLLCDKCPPGTYLKQHCTAKWKTVCAPCPDHYYTDSWHTSDECLYCSPVCKELQYVKQECNRTHNRVCECKEGRYLEIEFCLKHRSCPPGFGVVQAGTPERNTVCKRCPDGFFSNETSSKAPCRKHTNCSVFGLLLTQKGNATHDNICSGNSESTQKCGIDVTLCEEAFFRFAVPTKF[letters of human IgG1 Fc left out]", "notes": "1 itself; 1 begins with OPG residues 1-215, so residues 1-21 are left out here"}},
  "key": {"[1]": {"target": "T1, recombinant soluble human Receptor Activator of Nuclear Factor Kappa-B Ligand (rshRANKL) (human, UniProt O14788 140-317, limits assumed)", "T1 construct": "also called rhsRANKL", "T1 sequence (looked up)": "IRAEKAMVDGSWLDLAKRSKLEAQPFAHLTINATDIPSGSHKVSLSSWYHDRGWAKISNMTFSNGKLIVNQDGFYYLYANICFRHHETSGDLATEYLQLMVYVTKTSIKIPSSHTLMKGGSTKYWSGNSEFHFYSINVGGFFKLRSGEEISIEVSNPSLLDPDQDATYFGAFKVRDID", "experiment": "SPR (Biacore X100), hOPG-hIgG1-Fc captured on Protein A, rshRANKL as analyte, 1:1 Langmuir fit"}, "[2]": {"target": "T1, recombinant soluble human Receptor …", "experiment": "SPR (Biacore X100), KD compared under substantially similar conditions"}},
  "data": [
    {"binder": "B1", "values": [
      {"measurement": "Kd", "setting": "[1]", "result": 0.485, "unit": "pM"},
      {"measurement": "koff", "setting": "[1]", "result": "6.54e-06", "unit": "s⁻¹"},
      {"measurement": "kon", "setting": "[1]", "result": "1.35e+07", "unit": "M⁻¹ s⁻¹"},
      {"measurement": "fold higher affinity compared to Denosumab", "setting": "[2]", "result": "~50", "unit": "fold"}
    ]}
  ]
}
